Test results reported in patent US11344574B2, “Fluoro substituted porphyrin compounds, pharmaceutical compositions comprising the same, and methods of preparing and using the same” (Duke University, priority 2017, dated 2022).

Key:
[1] = Levels of Mn porphyrins in tumor, muscle and liver of the sc flank 4T1 mouse study (LCMS/MS); conditions: 2 mg/kg
Mouse toxicity = format: in vivo; conditions: mouse, in vivo
[2] = Ability of MnP to catalyze ascorbate oxidation, initial rates assessed spectrally; conditions: compared with non-fluorinated MnP; listed as MnTFE-2-PyP^5+

| Molecule | levels in tumor, muscle and liver (in words) [1] | toxicity compared with BMX-001 (Mouse toxicity) | catalysis of ascorbate oxidation (in words) [2] |
| --- | --- | --- | --- |
| FCC[n+]1ccccc1C1=C2C=CC3=[N+]2[Mn]24[n]5c1ccc5C(c1cccc[n+]1CCF)=C1C=CC(=[N+]12)C(c1cccc[n+]1CCF)=c1ccc([n]14)=C3c1cccc[n+]1CCF [Mn3, Mn(III) 5,10,15,20-tetra(2-fluoroethylpyridinium-2-yl)porphinato pentachloride] | lowest level in tumor | less toxic | twice a higher rate constant for ascorbate oxidation |
| Mn(III) ortho N-butoxyethylpyridylporphyrin [Mn2, reference compound] | at higher levels |  |  |
